We go through 16 sequences from the supplement of paper PMC10338343.

± gives the standard deviation. This is a selection; strong and weak results do not stand in their true shares.
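Also: 1 nM active piRISC with 0.1 nM target library at 33 °C single turnover.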

The assay has as its system MIWI (PIWIL1) piRISC loaded with piRNA #1 (30 nt). The assay is described as follows: pre-steady-state target cleavage rate (min^-1); MIWI and MILI are mouse PIWI proteins and EfPiwi is from a freshwater sponge; tags in brackets are library labels; higher = faster piRNA-guided slicing of the target. The conditions noted are these: guide: piRNA #1 5'p-UGAGGUAGUAGGUUGUAUAGUAUCCAGAGG; auxiliary factor: 500 nM mouse GTSF1. The method, boiled down:
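A transcribed, DNA-blocked target RNA library […] was incubated at 33 °C for 0–8 or 0–960 min with 1 nM active affinity-purified piRISC carrying one synthetic guide, in HEPES–potassium acetate buffer with or without 500 nM GTSF1 partner protein. Uncleaved targets were then sequenced and normalised to depth and to weakly complementary targets. Data from three trials were pooled, with k3 capped at 0.0001 min^-1, and a burst-and-steady-state fit yielded the pre-steady-state cleavage rate.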
Turning to GCUCUGGAUAGUAUACAACCUACUACGUCA, the “pre-steady-state target cleavage rate” value was 0.805 ± 0.064. For GCACUGGAUACUAUACAACCUUCUACCUCA the value was 0.829 ± 0.039; for CCUCUGGAUACUAUACAACCUACUUGGUCA, 0.107 ± 0.026; for GGAGACCUAUGAUAUGUUCCUACUAACUCA, less than 0.0001. On to CCUCUGGUUACUAUACAACCUACUACCUCA, for which the “pre-steady-state target cleavage rate” value is 2.29 ± 0.13.

Consider GGAGAGGAUACUAUACAACCUACUACGCUCA, for which the “pre-steady-state target cleavage rate” value came to 0.56 ± 0.038. The same measure for GGAGACCUAACUAAACAACCUACAACCUCA: 0.0123 ± 0.0077.

Consider GGAGACCAUUCUAUACAACGUACUACCUCA, for which the “pre-steady-state target cleavage rate” value was 0.29 ± 0.033. For the sequence “GGAGACCUAUGAUAACAACCUACAUGGAGA [g8:g16:cont:t1A]”, the “pre-steady-state target cleavage rate” value was less than 0.0001. The same measure for GGAGUGGAUACUAUACAACCUACCACCUCA: 0.434 ± 0.044; for GGACUGGGAUACUAUACAACCUACUACCUCA: 1.81 ± 0.11; for GGAGUGGAUACUAUAGAACCAACUACCUCA: 0.049 ± 0.0053. For the sequence GGAGACCUUACUAUACGAACCUACUACCUCA, the “pre-steady-state target cleavage rate” value was less than 0.0001. For GGAGACGAUACAAUACUACCUACUACCUCA, the “pre-steady-state target cleavage rate” value is 0.646 ± 0.061. The same measure for GGAGUGGUAUCUAUACAACCUACUACCUCA: 1.12 ± 0.062; for GGAGACCUUACUAUACAACCUACUAGGACA: 0.0569 ± 0.018.
